Measured values as given in PubChem BioAssay AID686979 (National Center for Advancing Translational Sciences (NCATS), 2013).
Out of some 420,000 compounds screened, about 50,000 (12%) were called active. The shares of active, inactive and inconclusive entries below differ from those in the screen. The call rests on the fitted dose curve; in most records, active means well fitted inhibition curve with a large enough effect; inconclusive means small, poorly fitted or top-dose-only effect; inactive means flat fitted curve, though single readings scatter. No potency is given beside an inconclusive call; the fits are too rough.

assay: qHTS for Inhibitors of human tyrosyl-DNA phosphodiesterase 1 (TDP1): qHTS in cells in presence of CPT; conditions: chicken DT40 Tdp1-/-;hTDP1 cells + 20 nM CPT, ATP luminescence, 48 h; activity change, negative = growth inhibition: at 46.2 µM (top of the series) unless noted; further: nearly all actives have a fitted effect of over 55% in size
How it was run: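 Chicken DT40 Tdp1-/- cells stably complemented with human TDP1 were seeded at 400 cells/well in medium containing 20 nM camptothecin, exposed to pin-transferred compounds, and grown at 37 °C for at least 48 hr. Viability was read as ATP luminescence.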
On the % scale 0 is the no-effect control and ±100 the full control effect; potency means the concentration at half of the fitted maximal effect; tags describe the fitted curve by direction and shape.

| Structure (SMILES) | Potency | activity change, negative = growth inhibition |
| --- | --- | --- |
| COCCN(C(=O)C1CCCO1)c1c(N)n(CC(C)C)c(=O)[nH]c1=O (stereo not given) | inactive |  |
| CCN(CC)S(=O)(=O)c1ccc(C)c(NC(=S)Nc2cccc(S(=O)(=O)N3CCCCCC3)c2)c1 | inconclusive [inhibitor, single point] |  |
| Nc1nonc1-c1nc2ccccc2n1CC(=O)Nc1ccccc1 | active: 6.51 µM |  |
| CCOC(=O)C(C)Sc1nc(=O)n2ccccc2n1 (stereo not given) | inconclusive [inhibitor, single point] |  |
| CC1=CC(C)(C)NC(=S)N1c1cccc(C)c1 |  | inconclusive: -30.8% [inhibitor] |
| Nc1c[n+](N2CCOCC2)no1 | inconclusive [inhibitor, single point] |  |
| CC1=NN(C(=O)Cc2ccc([N+](=O)[O-])cc2)C(O)(C(F)(F)C(F)(F)F)C1 (stereo not given) | inconclusive [inhibitor, single point] |  |
| Cc1ccc(C(=O)n2c(-c3ccccc3)cnc2SCC(=O)Nc2ccc(C)cc2C)cc1 | inconclusive [inhibitor, single point] |  |
| Cc1cc(N)n(-c2ncnc3scc(-c4ccc(Cl)cc4)c23)n1 | inactive |  |
| O=C(Nc1ccc(F)c(F)c1)c1ccccc1 | inactive |  |
| Nc1ccc(C#Cc2ccc3oc4ccccc4c(=O)c3c2)cc1 | inconclusive [inhibitor, partial curve] |  |
| Cc1ccc(C(=O)/C=C/Nc2ccccc2C(N)=O)o1 | inactive |  |
| CCC1=C(c2ccc(OC)cc2)CCC(C(=O)O)C1C (stereo not given) | inactive |  |
| O=C(Nc1ncn[nH]1)c1cc([N+](=O)[O-])ccc1Cl | inactive |  |
| Cc1sc(NC(=O)c2ccc(Cl)s2)c(C(N)=O)c1C | inconclusive [inhibitor, single point] |  |
| CCOc1cc(Cl)c(S(=O)(=O)NCCCN2CCOCC2)cc1Cl | inconclusive [inhibitor, partial curve] |  |
| O=C(CN1CCN(S(=O)(=O)c2ccc(F)cc2)CC1)Nc1ccc2c(c1)OCCO2 | inactive |  |
| COc1ccc(C(=O)NCCNc2ccccc2[N+](=O)[O-])cc1 | inconclusive [inhibitor, single point] |  |
| CCCCNc1cc(=O)n(C)c(=O)n1C | inactive |  |
| Cc1ccc(NC(=O)CN(C)C(=O)Cn2cc(C(F)(F)F)ccc2=O)cc1 |  | inconclusive: -4.22% [inhibitor] |
| CCOC(=O)N1CCN(Cc2nc3cc(NC(=O)CC)ccc3n2CC)CC1 | inconclusive [inhibitor, single point] |  |
| COC(=O)C1=CN(c2cc(C)cc(C)c2)C=C(C(=O)OC)C1c1ccc(OC)c(O)c1 | inconclusive [inhibitor, single point] |  |
| CN(C)c1ccc(-n2cccc2)cc1 | inactive |  |
| COc1ccc(-c2nn(-c3ccccc3)cc2/C=C2/SC(=S)N(Cc3ccco3)C2=O)c(C)c1 | inconclusive [inhibitor, single point] |  |
| CCCCC[C@H](O)/C=C/[C@H]1C(=O)C=C[C@@H]1C/C=C\CCCC(=O)O |  | inactive: 11.7% [at 4.12 µM] |

| Structure (SMILES) | Potency | activity change, negative = growth inhibition |
| --- | --- | --- |
| C[C@@H]1CN([C@@H](C)CO)C(=O)c2cc(Br)cnc2O[C@H]1CN(C)C(=O)C1CCCCC1 | inactive |  |
| O=C(Nc1ccc(N2CCN(C(=O)c3ccco3)CC2)cc1)c1cc(Br)ccc1Cl | inconclusive [inhibitor, single point] |  |
| CN(C)C(=O)c1ccc(-c2ccc3ncnc(NCc4cccs4)c3c2)cc1 | inactive |  |
| Cc1ccc(C(=O)CCC(=O)N(C)CC(=O)Nc2ccccc2Br)cc1 | inactive |  |
| Cc1nc(N2CCCC2)ncc1C(=O)N1CCN(c2ccc(Cl)cc2)CC1 | inconclusive [inhibitor, single point] |  |
| COc1ccc(CC(=O)NCC2CCCN(Cc3ccccc3OC)C2)cc1 (stereo not given) | inactive |  |
| Cc1ccc(C)c(-n2cc(-c3ccccc3)nc2SCC(=O)Nc2ccccc2)c1 | inconclusive [inhibitor, single point] |  |
| O=C(Oc1ccc(OC(=O)c2ccco2)c(S(=O)(=O)c2ccc(Cl)cc2)c1)c1ccco1 | inactive |  |
| CCOC(=O)C1=C(N2CCCCC2)c2cc3c(n2C1=O)CCCC3 | inconclusive [inhibitor, partial curve] |  |
| ClCc1nc2ccccc2n1Cc1ccccc1 | active: 10.3 µM |  |
| COc1cccc(-c2csc(-c3c(N)c(C(=O)c4ccccc4)n4ccccc34)n2)c1 | inconclusive [inhibitor, single point] |  |
| O=C(CSc1nc2c([nH]c3ccccc32)c(=O)n1-c1ccc(Cl)cc1)N1CCCCCC1 | inconclusive [inhibitor, single point] |  |
| COc1ccc(C(=O)N2CCC3(CCCN(C(c4ccccc4)c4ccccc4)C3)CC2)cc1 | inactive |  |
| Cc1nc2n(c(=O)c1CCN1CCC(c3noc4cc(F)ccc34)CC1)CCC[C@H]2O | active: 0.0944 µM |  |
| CN(c1ccccc1)S(=O)(=O)c1cc(C(=O)Nc2ccccc2N2CCOCC2)ccc1Cl | active: 16.4 µM |  |
| CC(NNC(=S)N1CCN(c2ccccn2)CC1)c1nccc2ccccc12 (stereo not given) | active: 0.0092 µM |  |
| CCN(C(=O)COc1ccc(C)cc1OC)c1cccc2ccccc12 | inconclusive [inhibitor, single point] |  |
| CC(C)c1cc(C(=O)NNC(=S)NCc2ccco2)c(O)c(C(C)C)c1 | inconclusive [inhibitor, single point] |  |
| O=C1[C@H]2[C@@H]3CCN1CCC[C@@H]2C=C[C@@H]3c1ccc(Br)cc1 | inconclusive [inhibitor, single point] |  |
| CCO[C@H]1C[C@@H](c2ccc(CC)cc2)N(S(=O)(=O)c2ccc(C)cc2)C2CC(c3ccc(CC)cc3)N(S(=O)(=O)c3ccc(C)cc3)CC21 (stereo not given in full) | inconclusive [inhibitor, full curve] |  |
| CCOC(=O)c1c(-c2ccccc2)oc2ccc(O)c(CN3CCCC3)c12 | active: 23.1 µM |  |
| COc1ccc(C(=O)NCCS(=O)(=O)NCc2ccc(F)cc2)cc1 | inactive |  |
| CCOC(=O)C1(Cc2ccccc2C(F)(F)F)CCN(C(C)COC)CC1 (stereo not given) | inconclusive [inhibitor, single point] |  |
| CN1CCCCC1C(=O)N1CCC(Oc2cccc(CN3CCN(c4ccccn4)CC3)c2)CC1 (stereo not given) |  | inactive: 11.9% [at 9.04 µM] |
| CCCNC(=O)C1(C)CCN(Cc2ccc(-c3ccccc3)o2)C1 (stereo not given) | active: 23.1 µM |  |

| Structure (SMILES) | Potency | activity change, negative = growth inhibition |
| --- | --- | --- |
| O=C(/C(=C/O)N=Nc1ccccc1)c1ccco1 |  | inconclusive: -30.4% [inhibitor] |
| CCOC(CCNC(=O)c1cc(-c2cccs2)nc2ccccc12)OCC | active: 20.6 µM |  |
| COc1cc(C(=O)N=c2sc3c(C)ccc(OC)c3n2C)cc(OC)c1OC | active: 14.6 µM |  |
| CN(C)c1ncc2nc(-c3ccc(Cl)cc3)c(=O)n(CCC#N)c2n1 | inactive |  |
| CCCCOc1cc(C(=O)OCCN(CC)CC)ccc1N | inconclusive [inhibitor, single point] |  |
| Cc1ccc(Cl)cc1N1CCN(C(=O)CCS(=O)(=O)c2cccc3nonc23)CC1 | inconclusive [inhibitor, partial curve] |  |
| O=C(CCNS(=O)(=O)c1ccccc1)NCCCc1ccccc1 | inactive |  |
| CCOC(=O)c1ccccc1NC(=O)Cn1c(=O)n(CCCC(=O)NCc2ccc3c(c2)OCO3)c(=O)c2ccccc21 | inactive |  |
| CC12CC(NC(=O)N1c1ccc(C(=O)N3CCN(c4ccc(F)cc4)CC3)cc1)c1ccccc1O2 (stereo not given) | inconclusive [inhibitor, single point] |  |
| CCCSc1nc2cc(S(=O)(=O)N3CCOCC3)ccc2n1CC | inactive |  |
| Cc1cccc(OCCNC(=O)c2cccc(Oc3ccc(C(F)(F)F)cc3[N+](=O)[O-])c2)c1 | active: 23.1 µM |  |
| O=S(=O)(c1cccc(F)c1)N1CCN(c2nc(-c3cccs3)nc3ccccc23)CC1 | inconclusive [inhibitor, single point] |  |
| COc1ccc(C(=O)NC(C)CCc2ccccc2)c(O)c1 (stereo not given) | inconclusive [inhibitor, single point] |  |
| Cc1ccc(NC(=S)Nc2ccc3nc(-c4ccccn4)c(-c4ccccn4)nc3c2)cc1C | active: 25.9 µM |  |
| COc1cccc(CNC23CC4CC(CC(C4)C2)C3)c1OCc1ccccc1 | active: 9.2 µM |  |
| CCCn1c(N)c(C(=O)CN(C)CC(=O)Nc2cc(C)ccc2C)c(=O)[nH]c1=O | active: 13 µM |  |
| C=CCn1c(CNc2ccc(C)cc2)nnc1SCC(=O)N/N=C/c1ccc(O)cc1 | inactive |  |
| COC(=O)c1c(SCC(=O)Nc2cccc(Cl)c2C)[nH]c2ccccc2c1=O | active: 23.1 µM |  |
| Cc1ccc(S(=O)(=O)NCCc2csc3nc(-c4ccccc4F)nn23)cc1C | inconclusive [inhibitor, single point] |  |
| Cc1ccc(NC(=O)c2ccc(-n3nncc3-c3ccccc3)cc2)cc1 | inconclusive [inhibitor, single point] |  |
| CCN(CC)C(=O)C1=C(C)N(Cc2ccccc2)C(=O)C(CC(=O)NC2CC2)C1 (stereo not given) | inconclusive [inhibitor, single point] |  |
| O=C(O)CCC(=O)NNc1nc2ccccc2nc1-c1ccccc1 | inactive |  |
| CCOC(=O)c1c(C)oc2ncnc(N3CCN(c4ccccc4)CC3)c12 | active: 8.2 µM |  |
| CC(NC(=O)C1CCN(S(=O)(=O)c2ccc3c(c2)oc(=O)n3C)CC1)c1ccccc1 (stereo not given) | inactive |  |
| CCCCN1C(=O)C(CC(=O)NCc2cccc3ccccc23)CC(C(=O)N2CCCCCC2)=C1C (stereo not given) | inconclusive [inhibitor, single point] |  |
